Test results as given in PubChem BioAssay AID1671194 (National Center for Advancing Translational Sciences (NCATS), 2021).
The campaign covered roughly 140,000 compounds. About 240 (0.17%) were called active. The shares of active, inactive and inconclusive entries below differ from those in the screen. The call rests on the fitted dose curve; in most records, active means well fitted inhibition curve with a large enough effect; inconclusive means small, poorly fitted or top-dose-only effect; inactive means no such curve, though single readings can be large or run the other way. Potencies of inconclusive entries are doubtful fits and often do not repeat.

Assay: Primary qHTS assay for inhibitors of alpha-synuclein gene (SNCA) expression; further: nearly all actives have a fitted effect of over 45% in size;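 on activity change, negative = inhibition: plate controls were DMSO cells for no effect and cell-free wells for full effect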
Conditions: HEK-293 SNCA-luciferase knock-in, luminescence, 24 h; activity change, negative = inhibition: at 57.2 µM (top of the series) unless noted
Potency means the concentration at half of the fitted maximal effect; tags describe the fitted curve by direction and shape.

Potency, inconclusive:
CC[C@H]1CN(C(=O)Nc2cccc(C(F)(F)F)c2)CC[C@H]1CC(=O)N(C)CC#N 11.2 µM [inhibitor, full curve, poor fit]
COc1ccccc1OCC(=O)NCc1nc(-c2ccc(Cl)cc2)no1 3.16 µM [inhibitor, partial curve, poor fit]
O=C(CN1C(=O)CCc2cc(S(=O)(=O)N3CCOCC3)ccc21)Nc1cccc(C(F)(F)F)c1 39.8 µM [inhibitor, partial curve, poor fit]
CCCCN1C(C(=O)c2ccccc2)=C(OC(C)=O)c2ccccc2S1(=O)=O 15.8 µM [inhibitor, partial curve, poor fit]
COc1ccccc1Nc1cnc2ccc(-c3ccccc3OC)nn12 50.1 µM [inhibitor, single point]
COc1ccc(Nc2ncc(C(=O)N3CCN(c4ccc(F)cc4)CC3)c3ccccc23)cc1 14.1 µM [inhibitor, partial curve, poor fit]
Cc1ccccc1Nc1cc(C(=O)NCc2cccs2)c2ccccc2n1 15.8 µM [inhibitor, single point]
COc1ccc(S(=O)(=O)NC[C@@H]2C=C(C)[C@H](CC(=O)NCc3ccc(C#N)cc3)C[C@H]2C(C)C)cc1 15.8 µM [inhibitor, single point]
O=C(NC1CCCC1)c1cccc2c1CCN2S(=O)(=O)c1ccccc1 8.91 µM [inhibitor, single point]
COCCn1c(=O)c(-c2ccc(Cl)cc2)nc2cnc(OCc3ccccc3)nc21 8.91 µM [inhibitor, single point]
CN(C)CCCC(=O)N1CCC2(CC1)CN([S+](C)(=O)[O-])Cc1ccccc1O2 39.8 µM [inhibitor, single point]
CCc1nc2ccccc2n1CCC(=O)N[C@H]1CCOC[C@H]1C1CCOCC1 25.1 µM [inhibitor, single point]
O=C(c1ccc[nH]1)N1CCCC(n2cc(-c3nc(C4CC4)no3)nn2)C1 (stereo not given) 3.16 µM [inhibitor, full curve, poor fit]
COc1cccc(C(=O)N2CCC(N3C[C@H](O)C[C@H]3C(=O)NC3CCCC3)CC2)c1 4.47 µM [inhibitor, full curve]
Oc1ccc(/C=C/c2cc(O)cc(O)c2)cc1 10 µM [inhibitor, partial curve, poor fit]
CCN(Cc1ccccc1)S(=O)(=O)c1ccc2c(c1)CC(C)N2C(=O)C1CCC1 (stereo not given) 17.8 µM [inhibitor, partial curve, poor fit]
Cn1cc(S(=O)(=O)N2CCOCC2)cc1C(=O)Nc1ccc(Cl)c(C(F)(F)F)c1 14.1 µM [inhibitor, partial curve, poor fit]
N#Cc1cccc(-c2ccnc(N[C@H]3CO[C@H]4[C@@H]3OC[C@H]4OC(=O)Nc3cccc(C(F)(F)F)c3)n2)c1 25.1 µM [inhibitor, single point]
CCc1ccc(CN2C[C@@H]3C(=O)N(CCCN4CCCC4=O)C(=O)[C@@H]3C2)cc1 39.8 µM [inhibitor, single point]
COc1ccc(NC(=O)c2c(NC(=O)c3ccc(Br)cc3)sc3c2CCCC3)cc1 39.8 µM [inhibitor, single point]
Cn1c(=O)[nH]c(=O)c2c1nc(NCCc1ccccc1)n2Cc1ccc(F)cc1 39.8 µM [inhibitor, single point]
CNC(=O)[C@@H](c1ccc(Cl)cc1)N1CCC[C@H]1C(=O)NC(C)C 3.98 µM [inhibitor, partial curve, poor fit]
CCOc1ccc(OCC)c(NS(=O)(=O)c2ccc(-c3coc(C)n3)cc2)c1 11.2 µM [inhibitor, partial curve, poor fit]
COc1ccc(N2CCN(CCCNC(=O)Cn3c(-c4cccs4)cc4ccccc43)CC2)cc1 39.8 µM [inhibitor, single point]
COc1ccccc1-c1cc(-c2cn[nH]c2)c2cncn2c1 7.94 µM [inhibitor, partial curve, poor fit]
COc1ccc(C(=O)N2CCC(N3C(=O)C4(CCCCC4)C3c3ccccc3)CC2)cn1 (stereo not given) 28.2 µM [inhibitor, single point]
COc1ccc2nc(N(Cc3cccnc3)C(=O)C3CCCCC3)sc2c1 2.51 µM [inhibitor, single point]
COc1ccc(N(C(=O)c2cccc(C)c2)S(=O)(=O)c2ccc(Cl)cc2)cc1 0.501 µM [inhibitor, full curve, poor fit]
COc1cccc(-c2ccc3ncnc(NCc4cccnc4)c3c2)c1 11.2 µM [inhibitor, partial curve, poor fit]
CC(NC(=O)C1CCN(c2nc3ccccc3nc2C(F)(F)F)CC1)c1ccccc1 (stereo not given) 3.55 µM [inhibitor, single point]
Cc1cccc(NC(=O)c2cc3c([nH]c2=O)CC(c2ccccc2)CC3=O)c1 (stereo not given) 7.08 µM [inhibitor, single point]
CCOc1ccc(C2CC(=O)Nc3c2c(=O)[nH]c2ncnn32)cc1 (stereo not given) 11.2 µM [inhibitor, single point]
CCc1ccc(C(=O)c2cn(CC(=O)Nc3ccc(F)cc3)c3ccc(F)cc3c2=O)cc1 3.55 µM [inhibitor, single point]
CCOC(=O)c1cc(S(=O)(=O)N2CCN(c3ccccc3OC)CC2)[nH]n1 15.8 µM [inhibitor, partial curve]
O=C1NC(=NC2CCCCC2)C2(CCN(Cc3cccnc3)C2)N1c1cccnc1 (stereo not given) 7.08 µM [inhibitor, single point]
Cc1ccc(OCc2nc(C3CCN(C(=O)Cc4cccc(F)c4)CC3)no2)cc1 1.41 µM [inhibitor, full curve, poor fit]
Cc1ccc2onc(CNC(=O)N3CCN(c4cc(Cl)ccc4C)CC3)c2c1 39.8 µM [inhibitor, single point]
COC1CCOC2(CCN(C(=O)Cc3ccccc3)CC2)C1 (stereo not given) 4.47 µM [inhibitor, single point]
COc1ccc(C(C)=O)cc1CSc1nc(NCc2ccccc2)c2ccccc2n1 20 µM [inhibitor, partial curve, poor fit]
COc1ccc(Cn2c(C(=O)O)c(CNCc3ccc(C)o3)c3ccc(OC)cc32)cc1 7.08 µM [inhibitor, single point]
O=C(NC1CCN(C(=O)c2ccc(-c3cncnc3)cc2)CC1)c1ccc(C(F)(F)F)cc1 44.7 µM [inhibitor, single point]
CCc1cccc(NC(=O)Cn2nc(C)c3sc4ccccc4c3c2=O)c1 7.08 µM [inhibitor, single point]
CC(C)C[C@@H]1N[C@H](C(=O)NCc2ccc(C#N)cc2)Cc2c[nH]c3cccc1c23 17.8 µM [inhibitor, partial curve, poor fit]
COc1ccc(C2Cn3nnc(C(=O)N4CCN(C(=O)c5ccc(C)s5)CC4)c3CO2)cc1 (stereo not given) 28.2 µM [inhibitor, partial curve, poor fit]
COc1cccc(NC(=O)C2CCN(S(=O)(=O)c3c(C)noc3/C=C/c3cccs3)CC2)c1 22.4 µM [inhibitor, single point]

Potency, active:
COc1ccc(/C=C/C(=O)Nc2ccccc2C(=O)O)cc1OC 1.58 µM

Activity change, negative = inhibition, inactive:
CCN(Cc1ccncc1)C(=O)CCC[C@@H]1[C@H]2CCCN3CCC[C@@H](CN1Cc1cccnc1)[C@@H]23 -15.1%
O=C(NCc1nnc2ccc(-c3ccc(Cl)cc3)nn12)c1cc(F)ccc1F -9.82%
COc1ccccc1-c1cccc(CN2CCCC(C(=O)N3CCN(c4ncccn4)CC3)C2)c1 (stereo not given) -10.1%
O=C(c1ccc(Cl)cc1)N1CCOC(CN(C(=O)c2ccc(F)cc2)C2CCCC2)C1 (stereo not given) 6.79%
COc1ccc(Nc2ccnc(N3CCN([S+](=O)([O-])c4ccc(C)cc4)CC3)n2)cc1 -7.92%
Cc1cc(C)cc(-c2ccc(CN3CCCC3C(=O)NCC3CC3)cc2)c1 (stereo not given) -22.3%
CS(=O)(=O)N1CCC(C2CCN(Cc3ccc[nH]3)C2)CC1 (stereo not given) -18%
Cc1cc(Cn2cc3c4c(cccc42)[C@H](CC(C)C)N[C@H](C(=O)NCc2ccccn2)C3)no1 -16.6%
Cc1cccc2c1nc1n2[C@@H](CNC(=O)c2ccc(C#N)cc2)COC1 1.86% [at 87.6 µM]
CCN(CC)C(=O)C[C@@H]1CCNC[C@@H]1Cc1cc(-c2ccccn2)on1 4.94% [at 87.6 µM]
O=C(O)[C@@H]1CN(C(=O)c2ccc(=O)[nH]c2)C[C@H]1c1ccc2c(c1)OCO2 17.6%
CC(=O)c1ccc(NC(=O)N2Cc3[nH]cnc3C[C@H]2c2nc(-c3ccc(F)cc3)no2)cc1 35.9%
Cc1cccc(C)c1-c1nnc2ccc(C(=O)NCc3cccs3)cn12 15.6%
COc1cccc(C(=O)N2CCc3onc(-c4cccc(F)c4)c3C2)c1OC -4.88%
